This passage reports inhibition of growth results from US11524934B2, “Phenylamine compounds” (PI INDUSTRIES LTD., priority 2017, dated 2022).

Common to all, as to conditions: 168 h, read-out: control
The test system of experiment [1] is Pyricularia oryzae. The experiment can be described thus: microbe, parasite or virus in culture. Type of experiment: cell-based.
Experiment [2] has as its system Alternaria solani. As to the kind of experiment: Alternaria solani (early blight of tomato/potato) in vitro test, radial growth on Potato Dextrose Agar.
Experiment [3] relates to Rhizoctonia solani.

For `CCN(C)C=Nc1cc(C)c(C(=O)COc2cccc(N(C)C)c2)cc1C` [Compound 69, N′-(4-(2-(3-(dimethylamino)phenoxy)acetyl)-2,5-dimethylphenyl)-N-ethyl-N-methylformimidamide], the inhibition of growth at 300 ppm in experiment [1], in experiment [2] and in experiment [3] was > 70% throughout. As to `CCN(C)C=Nc1cc(C)c(C(=O)CN(C)c2ccccc2)cc1C` [Compound 85, N′-(2,5-dimethyl-4-(N-methyl-N-phenylglycyl)phenyl)-N-ethyl-N-methylformimidamide], the inhibition of growth at 300 ppm in experiment [1] and in experiment [2] was > 70% in each case. In the case of `CCN(C)C=Nc1cc(C)c(C(=O)COc2cc(C)ccc2C)cc1Cl` [Compound 119, N′-(2-chloro-4-(2-(2,5-dimethylphenoxy)acetyl)-5-methylphenyl)-N-ethyl-N-methylformimidamide], the inhibition of growth at 300 ppm in experiment [2] is > 70%. Turning to `CCN(C)C=Nc1cc(C)c(C(=O)CSc2ccc(SC)cc2)cc1C` [Compound 64, N′-(2,5-dimethyl-4-(2-((4-(methylthio)phenyl)thio)acetyl)phenyl)-N-ethyl-N-methylformimidamide], the inhibition of growth at 300 ppm in experiment [1], in experiment [2] and in experiment [3] was > 70% in each case. For the compound `Cc1cc(C(=O)CSc2nc3ccccc3s2)c(C)cc1N=CN(C)C` [Compound 116, N′-(4-(2-(benzo[d]thiazol-2-ylthio)acetyl)-2,5-dimethylphenyl)-N,N-dimethylformimidamide], in experiment [2], the inhibition of growth at 300 ppm was > 70%.

On to `CCN(C)C=Nc1cc(C)c(C(=O)CSc2ccccc2F)cc1Cl` [Compound 58, N′-(2-chloro-4-(2-((2-fluorophenyl)thio)acetyl)-5-methylphenyl)-N-ethyl-N-methylformimidamide], for which the inhibition of growth at 300 ppm in experiment [1] was > 70%. As for `CCN(C)C=Nc1cc(C)c(C(=O)CSc2cccc(OC)c2)cc1Cl` [Compound 56, N′-(2-chloro-4-(2-((3-methoxyphenyl)thio)acetyl)-5-methylphenyl)-N-ethyl-N-methylformimidamide], the inhibition of growth at 300 ppm in experiment [2] was > 70%. In the case of `CCN(C)C=Nc1cc(C)c(C(=O)COc2ccc(C)cc2Br)cc1C` [Compound 81, N′-(4-(2-(2-bromo-4-methylphenoxy)acetyl)-2,5-dimethylphenyl)-N-ethyl-N-methylformimidamide], the inhibition of growth at 300 ppm in experiment [1], in experiment [2] and in experiment [3] was > 70% in each case. As to `Cc1cc(C(=O)COc2ccc(C(F)(F)F)cc2)c(C)cc1N=CN(C)C` [Compound 118, N′-(2,5-dimethyl-4-(2-(4-(trifluoromethyl)phenoxy)acetyl)phenyl)-N,N-dimethylformimidamide], the inhibition of growth at 300 ppm in experiment [1] is > 70%. As for `CCN(C)C=Nc1cc(C)c(C(=O)COc2ccc(Cl)c(Cl)c2)cc1C` [Compound 73, N′-(4-(2-(3,4-dichlorophenoxy)acetyl)-2,5-dimethylphenyl)-N-ethyl-N-methylformimidamide], the inhibition of growth at 300 ppm in experiment [1] and in experiment [2] was > 70% in each case. Regarding `CSc1cccc(OCC(=O)c2cc(C)c(N=CN(C)C)cc2C)c1` [Compound 105, N′-(2,5-dimethyl-4-(2-(3-(methylthio)phenoxy)acetyl)phenyl)-N,N-dimethylformimidamide], the inhibition of growth at 300 ppm in experiment [1], in experiment [2] and in experiment [3] was > 70% each time. Take `Cc1cc(C(=O)Cn2cnnc2)c(C)cc1N=CN(C)C` [Compound 117, N′-(4-(2-(4H-1,2,4-triazol-4-yl)acetyl)-2,5-dimethylphenyl)-N,N-dimethylformimidamide]: the inhibition of growth at 300 ppm in experiment [1] and in experiment [2] was > 70% in each case. As to `CCN(C)C=Nc1cc(C)c(C(=O)CSc2cc(Cl)cc(Cl)c2)cc1C` [Compound 101, N′-(4-(2-((3,5-dichlorophenyl)thio)acetyl)-2,5-dimethylphenyl)-N-ethyl-N-methylformimidamide], the inhibition of growth at 300 ppm in experiment [1] and in experiment [2] was > 70% throughout. As to `CCN(C)C=Nc1cc(C)c(C(=O)CSc2cccc(C)c2)cc1Cl` [Compound 35, N′-(2-chloro-5-methyl-4-(2-(m-tolylthio)acetyl)phenyl)-N-ethyl-N-methylformimidamide], the inhibition of growth at 300 ppm in experiment [2] is > 70%.

Consider `CCN(C)C=Nc1cc(C)c(C(=O)COc2ccccc2OC)cc1C` [Compound 110, N-ethyl-N′-(4-(2-(2-methoxyphenoxy)acetyl)-2,5-dimethylphenyl)-N-methylformimidamide], for which, in experiment [1], the inhibition of growth at 300 ppm was > 70%.

With `CCN(C)C=Nc1cc(C)c(C(=O)COc2ccccc2C)cc1C` [Compound 71, N′-(2,5-dimethyl-4-(2-(o-tolyloxy)acetyl)phenyl)-N-ethyl-N-methylformimidamide], the inhibition of growth at 300 ppm in experiment [1], in experiment [2] and in experiment [3] was > 70% in each case. Take `CCN(C)C=Nc1cc(C)c(C(=O)COc2cccc(SC(F)(F)C(F)(F)F)c2)cc1C` [Compound 67, N′-(2,5-dimethyl-4-(2-(3-((perfluoroethyl)thio)phenoxy)acetyl)phenyl)-N-ethyl-N-methylformimidamide]: the inhibition of growth at 300 ppm in experiment [1] and in experiment [2] was > 70% in each case.

`Cc1cc(C(=O)CSc2cccc(F)c2)c(C)cc1N=CN(C)C` [Compound 106, N′-(4-(2-((3-fluorophenyl)thio)acetyl)-2,5-dimethylphenyl)-N,N-dimethylformimidamide]: the inhibition of growth at 300 ppm in experiment [1] and in experiment [2] was > 70% in each case. On to `CCN(C)C=Nc1cc(C)c(C(=O)COc2cccc(C(F)(F)F)c2)cc1C` [Compound 72, N′-(2,5-dimethyl-4-(2-(3-(trifluoromethyl)phenoxy)acetyl)phenyl)-N-ethyl-N-methylformimidamide], for which the inhibition of growth at 300 ppm in experiment [1] and in experiment [2] was > 70% in each case. As for `CCN(C)C=Nc1cc(C)c(C(=O)COc2ccc(Cl)c(C(F)(F)F)c2)cc1C` [Compound 98, N′-(4-(2-(4-chloro-3-(trifluoromethyl)phenoxy)acetyl)-2,5-dimethylphenyl)-N-ethyl-N-methylformimidamide], the inhibition of growth at 300 ppm in experiment [1] and in experiment [2] was > 70% each time. As to `CCN(C)C=Nc1cc(C)c(C(=O)C(C)Oc2cccc(C)c2)cc1C` (stereo not shown) [Compound 77, N′-(2,5-dimethyl-4-(2-(m-tolyloxy)propanoyl)phenyl)-N-ethyl-N-methylformimidamide], the inhibition of growth at 300 ppm in experiment [1] and in experiment [2] was > 70% each time. Turning to `Cc1cc(C(=O)COc2cccc(OC(F)(F)F)c2)c(C)cc1N=CN(C)C` [Compound 115, N′-(2,5-dimethyl-4-(2-(3-(trifluoromethoxy)phenoxy)acetyl)phenyl)-N,N-dimethylformimidamide], the inhibition of growth at 300 ppm in experiment [1] and in experiment [2] was > 70% in each case. Turning to `Cc1cc(N=CN(C)C)c(Cl)cc1C(=O)CSc1ccccc1Br` [Compound 104, N′-(4-(2-((2-bromophenyl)thio)acetyl)-2-chloro-5-methylphenyl)-N,N-dimethylformimidamide], in experiment [2], the inhibition of growth at 300 ppm is > 70%.
